The values below come from paper PMC5700166.

This is a selection; strong and weak results do not stand in their true shares. The list includes weakly bound sequences.

This test concerns the target T1, GST-Co-NF-kB (UniProt F1ARL5).
T1 sequence: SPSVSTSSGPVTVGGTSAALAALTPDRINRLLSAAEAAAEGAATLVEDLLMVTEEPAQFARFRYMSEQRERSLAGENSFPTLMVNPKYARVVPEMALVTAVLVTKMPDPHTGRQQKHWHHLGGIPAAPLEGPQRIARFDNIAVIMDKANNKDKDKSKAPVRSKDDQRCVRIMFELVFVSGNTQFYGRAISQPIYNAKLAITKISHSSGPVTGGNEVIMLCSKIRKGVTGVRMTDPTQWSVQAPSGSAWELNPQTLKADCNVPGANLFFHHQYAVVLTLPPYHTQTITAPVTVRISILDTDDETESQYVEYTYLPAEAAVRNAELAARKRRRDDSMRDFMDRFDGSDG
Nature of the test: protein-binding microarray (PBM). The note with it: PBM: ~300 nM protein, 6 mM HEPES pH 7.8, 80 mM KCl, 0.5 mM EDTA, 0.5 mM EGTA, 6% glycerol, 35 ng/ul poly-dIdC, 1% milk, 1 h, room temperature; Ap Aiptasia and Nv Nematostella (sea anemones) / Co Capsaspora / Aq Amphimedon (sponge) / Dm Drosophila / Hu human; RHD is the Rel homology domain; high values mean tight binding; most listed sequences are background and not binding sites; double strand, one strand shown.
For “CCGATTAACATCAGGGAGTTTACTGATGTTAATCGGGTCTTGATTCGCTTGACGCTGCTG”, the binding signal stood at 1.37 z-score.
The same measure for “CCGATTAACATCAAAATACCCCCTGATGTTAATCGGGTCTTGATTCGCTTGACGCTGCTG”: 7.21 z-score; for “CCGATTAACATCACGGGTTTTCCTGATGTTAATCGGGTCTTGATTCGCTTGACGCTGCTG”: 1.18 z-score; for “CCGATTAACATCACTCTTTCCCCTGATGTTAATCGGGTCTTGATTCGCTTGACGCTGCTG”: 6.1 z-score.
“CCGATTAACATCACCAAACCCCCTGATGTTAATCGGGTCTTGATTCGCTTGACGCTGCTG” yielded a binding signal of 2.03 z-score.
The same measure for “CCGATTAACATCAGATTTCCCACTGATGTTAATCGGGTCTTGATTCGCTTGACGCTGCTG”: 3.15 z-score; for “CCGATTAACATCAGAACACCCCCTGATGTTAATCGGGTCTTGATTCGCTTGACGCTGCTG”: 3.33 z-score.
The same measure for “CCGATTAACATCAGAAATTCCCATGATGTTAATCGGGTCTTGATTCGCTTGACGCTGCTG”: 4.07 z-score.
“CCGATTAACATCAAAGTTTCCCCTGATGTTAATCGGGTCTTGATTCGCTTGACGCTGCTG” displayed a binding signal of 10.6 z-score.
Turning to “CCGATTAACATCAATGCCCCCCCTGATGTTAATCGGGTCTTGATTCGCTTGACGCTGCTG”, the binding signal was found to be 5.03 z-score.
The figure for “CCGATTAACATCAACGAAACCCCTGATGTTAATCGGGTCTTGATTCGCTTGACGCTGCTG” is 1.39 z-score; for “CCGATTAACATCAACCACCCCCCTGATGTTAATCGGGTCTTGATTCGCTTGACGCTGCTG” it is 4.22 z-score; for “CCGATTAACATCAGGGGGATAGATGATGTTAATCGGGTCTTGATTCGCTTGACGCTGCTG” it is 5.41 z-score.
The figure for “CCGATTAACATCACGGAATACCCTGATGTTAATCGGGTCTTGATTCGCTTGACGCTGCTG” is 1.67 z-score; for “CCGATTAACATCAGAAAATTCCCTGATGTTAATCGGGTCTTGATTCGCTTGACGCTGCTG” it is 4.76 z-score; for “CCGATTAACATCAGAAGTGGGAATGATGTTAATCGGGTCTTGATTCGCTTGACGCTGCTG” it is 2.78 z-score.
The same measure for “CCGATTAACATCAGATTCTCCCCTGATGTTAATCGGGTCTTGATTCGCTTGACGCTGCTG”: 6.76 z-score; for “CCGATTAACATCAAAAAATTACCTGATGTTAATCGGGTCTTGATTCGCTTGACGCTGCTG”: 0.749 z-score.
The sequence “CCGATTAACATCAAAAATTTACCTGATGTTAATCGGGTCTTGATTCGCTTGACGCTGCTG” showed a binding signal of 0.898 z-score.
The same measure for “CCGATTAACATCAGGAATCCCTATGATGTTAATCGGGTCTTGATTCGCTTGACGCTGCTG”: 0.587 z-score; for “CCGATTAACATCAGAAGACCCCCTGATGTTAATCGGGTCTTGATTCGCTTGACGCTGCTG”: 1.79 z-score.
The figure for “CCGATTAACATCAGGGGGGGCTATGATGTTAATCGGGTCTTGATTCGCTTGACGCTGCTG” is 5.06 z-score.
The same measure for “CCGATTAACATCAGGGGGAGTAATGATGTTAATCGGGTCTTGATTCGCTTGACGCTGCTG”: 6.83 z-score.
In the case of “CCGATTAACATCAAGCCCCCCCTTGATGTTAATCGGGTCTTGATTCGCTTGACGCTGCTG”, the binding signal was 3.04 z-score.
The figure for “CCGATTAACATCAAGAAAACCCCTGATGTTAATCGGGTCTTGATTCGCTTGACGCTGCTG” is 2.44 z-score; for “CCGATTAACATCAAAGTTTCCCATGATGTTAATCGGGTCTTGATTCGCTTGACGCTGCTG” it is 4.66 z-score.
